Experimental data published in PubChem BioAssay AID686970 (National Center for Advancing Translational Sciences (NCATS), 2013).
Out of some 360,000 compounds screened, about 6,000 (1.7%) were called active. The shares of active, inactive and inconclusive entries below differ from those in the screen. Calls follow the shape of the dose curve; as a rule, active = well fitted cell-killing curve with a large enough effect; inconclusive = small, poorly fitted or top-dose-only effect, or effect the other way; inactive = flat fitted curve, though single readings scatter. No potency is given beside an inconclusive call; the fits are too rough.
Potency is read from the fitted curve at half-maximal effect; tags tell the direction and shape of the fitted curve.

Assay: qHTS for induction of synthetic lethality in tumor cells producing 2HG: qHTS for the HT-1080-NT fibrosarcoma cell line;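 also: NT is the 2HG producing partner of a matched IDH1 knockdown line; nearly all actives have a fitted effect of over 55% in size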;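 as to activity, negative = less viability: 0% = DMSO-treated cells and -100% = media-only wells without cells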
Settings: HT-1080-NT fibrosarcoma viability, CellTiter-Glo ATP luminescence, 48 h; activity, negative = less viability: at 46.1 µM (top of the series) unless noted
In short: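 Read-out is CellTiter-Glo luminescence after 10 minutes at room temperature, following 48 hours' compound treatment of HT-1080-NT cells (750 cells/well, RPMI, 5% FBS, 37 degrees C).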
In the case of `CC(Oc1ccccc1)C(=O)Nc1nc2c(s1)C(=O)CC(C)(C)C2` (stereo unspecified), the Potency is reported as “inactive”. With `COc1cccc(/C=N/Nc2nc(Nc3ccc([N+](=O)[O-])cc3)nc(N3CCCC3)n2)c1O` the Potency was active: 9.2 µM. In the case of `CCC(NC(=O)Nc1nnc(C(F)(F)F)s1)(C(F)(F)F)C(F)(F)F`, the Potency is reported as active: 3.26 µM. In the case of `C=CCNc1nc(-c2ccccn2)nnc1-c1ccccc1`, the Potency is reported as inconclusive [cytotoxic, single point]. For `O=C(c1ccco1)N1CCN(c2ncnc3sc4c(c23)CCC4)CC1`, the Potency was “inactive”. In the case of `Nc1nc(=S)c2[nH]cnc2[nH]1`, the Potency is reported as active: 2.31 µM. For `CCN(CC(=O)Nc1cccc(OC)c1)CC(=O)Nc1ccc(Br)c(C)c1`, the Potency was inconclusive [cytotoxic, partial curve]. In the case of `O=C1CC(=C(c2ccccc2)c2ccccc2)C(=O)N1CCCCN1CCN(c2ccccc2)CC1`, the Potency is reported as active: 18.4 µM. In the case of `COc1ccc(CCCNC(=O)C2Cc3c(-c4ccc5c(c4)OCO5)ccnc3O2)cc1` (stereo unspecified), the Potency is reported as active: 9.2 µM. With `COC(=O)Cn1c(=NC(=O)CSC(C)=O)sc2ccccc21` the Potency was inconclusive [rising, single point]. For `N#Cc1c(NC(=O)/C=C/c2ccco2)sc2c1CCCC2`, the Potency was active: 0.58 µM. In the case of `CCn1cc(CN2CCC(C(=O)Nc3cccc(-c4cccc(Cl)c4)c3)CC2)c(C)n1`, the Potency is reported as active: 20.6 µM. With `Nc1ccccc1Nc1cc(-c2ccccc2)nn1-c1cccc(Cl)c1` the Potency was inconclusive [cytotoxic, single point]. In the case of `COc1ccc(OC)c2c(C)cc(N3CCCN(C)CC3)nc12`, the Potency is reported as inconclusive [cytotoxic, partial curve, poor fit]. For `COc1ccc(C(=O)Nc2cccc(/C=C/c3nc4ccccc4c(=O)[nH]3)c2)cc1`, the Potency was inconclusive [cytotoxic, single point]. With `O=C(O)c1cccc(S(=O)(=O)N(Cc2ccccc2)c2cccc(C(F)(F)F)c2)c1` the Potency was inconclusive [cytotoxic, partial curve, poor fit]. With `Cc1ccc([N+](=O)[O-])cc1NC(=O)c1ccc(C(C)(C)C)cc1` the Potency was inconclusive [cytotoxic, single point]. For `CCOc1cc(NS(=O)(=O)c2ccc(NC(C)=O)cc2)c(OCC)cc1NC(=O)c1cccs1`, the Potency was “inactive”. For `CN1/C(=C\C(=O)c2ccco2)C(C)(C)c2ccccc21`, the Potency was inconclusive [cytotoxic, single point]. With `O=C(NNC(=S)NC(=O)C12CC3CC(CC(C3)C1)C2)c1ccncc1` the Potency was active: 12.6 µM. For `Cc1ccc(S(=O)(=O)N2CC3(O)CN(C(=O)OC(C)C)N(C(=O)OC(C)C)CC3(OC(=O)NCc3ccco3)C2)cc1` (stereo unspecified), the Potency was “inactive”. In the case of `N/C(Cc1ccc(Cl)cc1)=N\OC(=O)c1ccc2ccccc2c1`, the Potency is reported as inconclusive [cytotoxic, single point]. For `COC(=O)/C(=C\c1cc(OC)c(OC)c(OC)c1)c1nc2ccccc2[nH]1`, the Potency was inconclusive [cytotoxic, partial curve]. With `Cc1ccc(NS(=O)(=O)c2ccc(NC(=O)C3CCCO3)cc2)cc1` (stereo unspecified) the Potency was “inactive”. In the case of `CCOC(=O)c1c(N)sc(C(=O)Nc2ccc3c(c2)OCO3)c1C`, the Potency is reported as inconclusive [cytotoxic, partial curve]. With `Clc1ccc(-c2nc3ccncc3[nH]2)cc1` the Potency was inconclusive [cytotoxic, partial curve]. With `c1ccc(CNc2nc(NCc3ccccc3)c3ccccc3n2)cc1` the Potency was active: 14.6 µM. For `COc1ccc(S(=O)(=O)NCc2ccncc2)cc1NC(=O)c1ccccc1F`, the Potency was “inactive”. With `COc1cc(OC)c2ccc(=O)oc2c1C(CCN1CCCC(C)C1)c1ccc2c(c1)OCO2` (stereo unspecified) the Potency was “inactive”. With `CN(Cc1ccccc1)C(=O)CSc1n[nH]c(N)n1` the Potency was “inactive”. For `Cc1ccc(COc2ccc(-c3nnco3)cc2)cc1`, the Potency was “inactive”. In the case of `CCOCCCNCc1ccc(OCc2ccccc2Cl)cc1`, the Potency is reported as inconclusive [cytotoxic, partial curve]. For `O=C(Nc1ccc(C(F)(F)F)cc1)C1CCCN1S(=O)(=O)c1cccc2cccnc12` (stereo unspecified), the Potency was inconclusive [cytotoxic, single point]. For `C/C(O)=c1/ccc2cccc3nc(C)nc1c23`, the Potency was inconclusive [cytotoxic, single point]. In the case of `O=C(c1ccc(COc2ccccc2Cl)o1)N1CCN(Cc2ccc3c(c2)OCO3)CC1`, the activity, negative = less viability is reported as inconclusive: -34.3% [cytotoxic]. In the case of `CCN(CCCNC(=O)CNC(=O)c1nn(-c2ccc(OC)cc2)c(=O)c2ccccc12)c1cccc(C)c1`, the Potency is reported as “inactive”. In the case of `Cc1cc(C)n(-c2nnc(C)n2/N=C/c2cc(Br)ccc2OCc2ccccc2)n1`, the Potency is reported as inconclusive [cytotoxic, single point]. In the case of `COc1ccc(Oc2nnc(-c3ccccc3)cc2C#N)cc1`, the Potency is reported as inconclusive [cytotoxic, single point]. For `COCC(C)n1c(SCc2ccc(C(=O)OC)o2)nc2ccccc2c1=O` (stereo unspecified), the Potency was inconclusive [cytotoxic, single point]. In the case of `COc1ccc(NS(=O)(=O)c2ccc3nc(COc4ccc5ccccc5c4)[nH]c3c2)cc1`, the Potency is reported as inconclusive [cytotoxic, partial curve]. In the case of `CCOc1cc2c3c(c1)C1(Nc4ccccc4S1)C(=O)N3C(C)(C)CC2C` (stereo unspecified), the Potency is reported as inconclusive [cytotoxic, single point]. With `C/C(=N\NC(=O)C(C)n1nc(C)c([N+](=O)[O-])c1C)c1ccccc1O` (stereo unspecified) the Potency was inconclusive [cytotoxic, partial curve]. For `COc1ccc2nc(Nc3ccc4c(c3)OCO4)sc2c1`, the Potency was inconclusive [cytotoxic, single point]. In the case of `CC(C)OCCCNC(=O)c1ccc(CN2CCc3ccccc3C2)cc1`, the Potency is reported as inconclusive [cytotoxic, single point]. In the case of `CCN(CCCNC(=O)COc1cc(=O)n(C)c2ccccc12)c1ccccc1`, the Potency is reported as “inactive”. In the case of `CCCCCCc1cc2cc(-c3nnc(-c4ccccc4OC)o3)c(=O)oc2cc1O`, the Potency is reported as inconclusive [cytotoxic, single point]. With `COc1ccc2[nH]c3c(c2c1)CCN1C(=O)C(CC(=O)NCc2cccc(C(F)(F)F)c2)C[C@H](C(=O)N2CCCCC2)[C@@]31CCc1ccccc1` (stereo partly specified) the Potency was “inactive”. In the case of `COc1cccc(N/C=C/C(=O)c2ccc(Cl)cc2)c1`, the activity, negative = less viability is reported as inconclusive: -3.54%. With `COc1cc(CNCc2ccccn2)ccc1OCC(=O)NC(C)(C)C` the Potency was “inactive”. With `Cc1ccc(-c2noc(N=O)c2NO)cc1` the Potency was inconclusive [cytotoxic, single point]. For `COCCNc1nc(Nc2ccc(F)cc2)c2sccc2n1`, the activity, negative = less viability was inconclusive: 1.71%. In the case of `O=C(Cc1cccc2ccccc12)NNC(=O)Nc1cccc(Cl)c1`, the Potency is reported as active: 16.4 µM. With `O=[N+]([O-])c1ccc2c(c1)-c1ccccc1C2=NO` the Potency was “inactive”. In the case of `Cc1nnc(C)n1/N=C/c1cccs1`, the Potency is reported as “inactive”. For `COc1ccc(S(=O)(=O)N(C)C)cc1NC(=O)c1ccc2c(c1)OCCO2`, the Potency was “inactive”. In the case of `CCc1c(C)sc(NC(=O)Cn2nc(C(F)(F)F)c3c2CCCC3)c1C#N`, the Potency is reported as inconclusive [cytotoxic, partial curve, poor fit]. In the case of `CCc1ccc(N(C(=O)c2snc(C(N)=O)c2N)C(C(=O)NC2CCCC2)c2ccco2)cc1` (stereo unspecified), the Potency is reported as inconclusive [cytotoxic, single point]. For `CS(=O)(=O)c1ccc2nc(NC(=O)c3cccc(NS(=O)(=O)c4ccc(F)c(F)c4)c3)sc2c1`, the Potency was inconclusive [cytotoxic, single point]. With `CCOC(=O)c1c(C)n(-c2ccc(C)cc2)c2ccc(O)c(CN(C)C)c12` the Potency was active: 16.4 µM. With `COC(=O)CCCCCN1C(=O)NC(c2ccccc2)C(C(=O)OCc2ccccc2)=C1C` (stereo unspecified) the Potency was “inactive”. For `CCOC(=O)Cn1c(S(=O)(=O)Cc2ccccc2Cl)nc(-c2ccccc2)c1-c1ccccc1`, the Potency was inconclusive [cytotoxic, single point]. In the case of `O=C1N(c2ccccc2)C[C@@H]2C[C@@H](c3cc4ccccc4o3)N3CCC[C@@]123`, the Potency is reported as inconclusive [cytotoxic, full curve, poor fit]. For `CC(C)c1ccc(NC(=O)Nc2nc(C(N)c3ccccc3Cl)cs2)cc1` (stereo unspecified), the Potency was inconclusive [cytotoxic, single point]. In the case of `CCc1cccc(CC)c1NC(=O)/C(C#N)=C/c1ccccc1C(F)(F)F`, the Potency is reported as active: 23.1 µM. In the case of `COC(=O)C(=N/Nc1ccccc1C(=O)OC)/C(C)=N/O`, the Potency is reported as inconclusive [cytotoxic, single point]. For `CCCC(=O)N1CCN(c2ccc(NC(=O)c3ccc([N+](=O)[O-])o3)cc2Cl)CC1`, the Potency was active: 16.4 µM. For `O=C1CSC(=S)N1N=Cc1cccc(OCc2ccccc2)c1`, the Potency was “inactive”. For `COc1cc(-c2cc(-c3ccc(O)cc3)nc(N)c2C#N)ccc1O`, the Potency was inconclusive [cytotoxic, single point]. For `COc1ccc(-c2nnc(CSc3nc4ccccc4c(=O)n3CC(C)C)o2)cc1OC`, the Potency was inconclusive [cytotoxic, single point]. With `CCc1nc2ccc(C(=O)Nc3ccc(OC)c(OC)c3)cn2c1N(CCC(C)C)CCN(C)C` the Potency was inconclusive [cytotoxic, single point]. For `Cc1ccc(C)c(NS(=O)(=O)c2cc(C(=O)NCCC3=CCCCC3)ccc2C)c1`, the Potency was inconclusive [cytotoxic, single point].
